Out of some 310,000 compounds screened, about 14,000 (4.5%) showed an effect of 50% or more. Effects have a minus sign here. Some of the results follow.
These compounds were tested against human ether-à-go-go-related gene (hERG) potassium channel (human, UniProt Q12809) (assay: primary screen, population patch clamp on CHO cells stably expressing hERG).
Sequence of human ether-à-go-go-related gene (hERG) potassium channel (Q12809 whole entry, looked up): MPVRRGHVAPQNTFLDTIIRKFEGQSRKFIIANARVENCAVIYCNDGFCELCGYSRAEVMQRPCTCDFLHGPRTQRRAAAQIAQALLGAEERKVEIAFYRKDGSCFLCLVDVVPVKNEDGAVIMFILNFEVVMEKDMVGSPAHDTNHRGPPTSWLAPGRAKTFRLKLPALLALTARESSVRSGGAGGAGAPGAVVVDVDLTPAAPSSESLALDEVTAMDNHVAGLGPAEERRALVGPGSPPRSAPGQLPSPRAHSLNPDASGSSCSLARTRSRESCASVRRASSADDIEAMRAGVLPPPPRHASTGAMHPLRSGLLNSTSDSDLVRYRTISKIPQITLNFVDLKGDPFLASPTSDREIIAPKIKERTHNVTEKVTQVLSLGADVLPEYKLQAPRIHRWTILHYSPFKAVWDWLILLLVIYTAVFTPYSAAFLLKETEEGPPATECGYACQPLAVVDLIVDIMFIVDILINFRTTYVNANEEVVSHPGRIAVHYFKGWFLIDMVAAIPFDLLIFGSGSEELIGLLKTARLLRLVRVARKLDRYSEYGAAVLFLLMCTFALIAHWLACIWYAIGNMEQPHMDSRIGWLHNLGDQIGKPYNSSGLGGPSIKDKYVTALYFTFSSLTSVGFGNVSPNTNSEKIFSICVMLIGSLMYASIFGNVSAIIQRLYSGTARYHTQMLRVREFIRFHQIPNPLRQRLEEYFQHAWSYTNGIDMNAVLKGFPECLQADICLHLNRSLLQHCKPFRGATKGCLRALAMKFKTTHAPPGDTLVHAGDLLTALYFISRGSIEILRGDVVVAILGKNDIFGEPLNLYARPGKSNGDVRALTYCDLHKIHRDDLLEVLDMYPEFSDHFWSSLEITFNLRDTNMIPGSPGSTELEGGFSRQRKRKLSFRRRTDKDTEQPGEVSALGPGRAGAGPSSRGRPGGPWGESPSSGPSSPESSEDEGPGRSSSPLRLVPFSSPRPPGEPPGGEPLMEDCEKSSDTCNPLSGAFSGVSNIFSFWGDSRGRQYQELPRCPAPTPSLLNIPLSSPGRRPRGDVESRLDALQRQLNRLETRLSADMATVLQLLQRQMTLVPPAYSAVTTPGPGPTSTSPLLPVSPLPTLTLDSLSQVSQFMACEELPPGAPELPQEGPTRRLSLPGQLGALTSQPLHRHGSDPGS
O=C(Nc1cc(F)ccc1F)c1cccc(-n2cnnn2)c1 was tested, and the “hERG current change (%, negative = inhibition) at 10uM” value was -18.3%.
COc1ccc(OC)c(S(=O)(=O)Nc2c(F)cccc2F)c1 was tested, and the “hERG current change (%, negative = inhibition) at 10uM” value was 16%.
For Cl.Clc1cccc(Cl)c1CNC1CCCC1, the “hERG current change (%, negative = inhibition) at 10uM” value was 13.5%.
With COc1ccc(NS(=O)(=O)c2cccc(C(=O)NNC(=O)c3ccc(NC(C)=O)cc3)c2)cc1 the “hERG current change (%, negative = inhibition) at 10uM” value was -5.82%.
With CSc1ccc(/C=C2\C(=N)N3N=C(CC(=O)N4CCCCC4)SC3=NC2=O)cc1 the “hERG current change (%, negative = inhibition) at 10uM” value was 5.53%.
CCOc1ccccc1OCCCC(=O)NNC(=O)c1cc(C)oc1C was tested, and the “hERG current change (%, negative = inhibition) at 10uM” value was 14.9%.
For CCCCCCC1/C(=N/O)CCC1C(=O)OC (stereo not drawn), the “hERG current change (%, negative = inhibition) at 10uM” value was -4.75%.
In the case of Cc1occc1C(=O)NNC(=O)C1CCCCC1, the “hERG current change (%, negative = inhibition) at 10uM” value is reported as 7.55%.
O=[N+]([O-])c1ccccc1S(=O)(=O)Nc1cccnc1 was tested, and the “hERG current change (%, negative = inhibition) at 10uM” value was 40.3%.
For Cc1oc(/N=C/c2cccc3ccccc23)c(C#N)c1C, the “hERG current change (%, negative = inhibition) at 10uM” value was 0.128%.
For COC(=O)c1cc(OC)c(OC)cc1NC(=O)c1ccc(Br)o1, the “hERG current change (%, negative = inhibition) at 10uM” value was 4.74%.
With COc1ccccc1/C=N/NC(=O)CNC(=O)c1ccc(S(=O)(=O)N(C)C)cc1 the “hERG current change (%, negative = inhibition) at 10uM” value was 13.4%.
With CN(CCn1ccnc1)C(=O)CC1C(=O)NCCN1Cc1ccccc1C(F)(F)F (stereo not drawn) the “hERG current change (%, negative = inhibition) at 10uM” value was 1.11%.
For CC1Nc2ncnc(N3CCc4ccccc4C3)c2N(Cc2ccc(Cl)cc2)C1=O.O=C(O)C(F)(F)F (stereo not drawn), the “hERG current change (%, negative = inhibition) at 10uM” value was -2.38%.
In the case of CC(C)C[C@H](N)C(=O)N1CCC(C(=O)N[C@H](C(=O)NC(C)c2ccccc2)C(C)C)CC1 (stereo partly drawn), the “hERG current change (%, negative = inhibition) at 10uM” value is reported as 7.77%.
Cc1cccc(OCC(=O)OCC(=O)N(CC(C)C)c2c(N)n(Cc3ccccc3)c(=O)[nH]c2=O)c1C was tested, and the “hERG current change (%, negative = inhibition) at 10uM” value was 1.47%.
C=C(C)COc1ccc(-c2nc(N)ncc2-c2ccc(Cl)cc2)c(O)c1 was tested, and the “hERG current change (%, negative = inhibition) at 10uM” value was 8.91%.
O=C(NN1C(=O)C2C3C=CC(C4CC34)C2C1=O)c1ccccc1Cl (stereo not drawn) was tested, and the “hERG current change (%, negative = inhibition) at 10uM” value was 0.861%.
With CNc1oc(Cc2ccccc2)nc1S(=O)(=O)c1ccc(Cl)cc1 the “hERG current change (%, negative = inhibition) at 10uM” value was -16%.
CC(=O)Nc1ccc(NC(=O)C(C)OC(=O)c2cccs2)cc1 (stereo not drawn) was tested, and the “hERG current change (%, negative = inhibition) at 10uM” value was -0.153%.
In the case of CCCC(C)NC(=O)Cc1ccc(S(=O)(=O)N2CCOCC2)s1 (stereo not drawn), the “hERG current change (%, negative = inhibition) at 10uM” value is reported as 2.63%.
With CCn1cc(C(=O)NCc2ccc(C)cc2)c(=O)c2cc(S(=O)(=O)N(C)C)ccc21 the “hERG current change (%, negative = inhibition) at 10uM” value was 8.52%.
For O=C(c1cc(S(=O)(=O)N2CCOCC2)ccc1Cl)N1CCN(c2ccccn2)CC1, the “hERG current change (%, negative = inhibition) at 10uM” value was 10.9%.
With COc1cc(C2Nc3cccc4cccc(c34)N2)ccc1O the “hERG current change (%, negative = inhibition) at 10uM” value was 11.4%.
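Further: peak tail current of the secondary pulse compared with the same well before compound.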
